{
  "source": "the antibiotic and cytotoxicity screens of Wong et al. (2023)",
  "note": "This is one part of the list.",
  "data": [
    {"test_system": "HSkMC (human skeletal muscle cells)", "assay": "cytotoxicity call (relative viability < 0.9)", "conditions": "10 µM", "values": [
      {"smiles": "C[C@@H]1CN([C@H](C)CO)C(=O)Cc2cc(NC(=O)Nc3ccccc3)ccc2O[C@H]1CN(C)Cc1ccc(-c2ccccc2)cc1", "cytotoxicity call": "inactive"},
      {"smiles": "Cc1noc(C)c1NC(=O)Nc1ccc2c(c1)C(=O)N([C@@H](C)CO)C[C@H](C)[C@@H](CN(C)S(=O)(=O)c1cccs1)OCCCC[C@H](C)O2", "cytotoxicity call": "inactive"},
      {"smiles": "COc1ccc(S(=O)(=O)N(C)C[C@H]2OCCCC[C@H](C)Oc3ccc(NS(=O)(=O)c4ccc(Cl)cc4)cc3C(=O)N([C@@H](C)CO)C[C@H]2C)cc1", "cytotoxicity call": "inactive"},
      {"smiles": "Cc1n[nH]c(C)c1N", "cytotoxicity call": "inactive"},
      {"smiles": "COc1ccc(C(=O)Nc2ccc(CN3C(=O)[C@]4(O[C@H](CC(=O)N(CCO)Cc5ccccc5)[C@@H]([Si](C)(C)c5ccc(OC)cc5)[C@@H]4C)c4ccccc43)cc2)cc1", "cytotoxicity call": "inactive"},
      {"smiles": "O=C(Cc1ccncc1)Nc1ccc2c(c1)[C@H]1C[C@H](CC(=O)N3CCc4ccccc4C3)O[C@@H](CO)[C@H]1O2", "cytotoxicity call": "inactive"},
      {"smiles": "Cn1cnc(S(=O)(=O)N[C@H]2CC[C@H](CC(=O)NCC3CC3)O[C@@H]2CO)c1", "cytotoxicity call": "inactive"},
      {"smiles": "C[C@H]1CN([C@@H](C)CO)C(=O)c2cccc(NC(=O)Nc3ccc(C(F)(F)F)cc3)c2O[C@H]1CN(C)C(=O)Nc1cccc2ccccc12", "cytotoxicity call": "inactive"},
      {"smiles": "CN(C)CC(=O)N1CC2(C1)[C@@H](c1ccccc1)[C@@H](CO)N2S(C)(=O)=O", "cytotoxicity call": "inactive"},
      {"smiles": "c1cnc2ccc3ncccc3c2c1", "cytotoxicity call": "inactive"},
      {"smiles": "C[C@@H]1CCCCO[C@H](CN(C)Cc2ccc3c(c2)OCO3)[C@H](C)CN([C@@H](C)CO)C(=O)c2cc(NC(=O)Nc3ccccc3)ccc2O1", "cytotoxicity call": "inactive"},
      {"smiles": "COc1ccc(S(=O)(=O)N(C)C[C@@H]2Oc3ccc(NS(=O)(=O)c4c(C)noc4C)cc3C(=O)N([C@@H](C)CO)C[C@@H]2C)cc1", "cytotoxicity call": "inactive"},
      {"smiles": "Nc1nc2c(ncn2COC(CO)CO)c(=O)[nH]1.O", "cytotoxicity call": "inactive"},
      {"smiles": "Cc1ccc(S(=O)(=O)N(C)C[C@@H]2Oc3ccc(NS(=O)(=O)c4cccs4)cc3CC(=O)N([C@H](C)CO)C[C@@H]2C)cc1", "cytotoxicity call": "inactive"},
      {"smiles": "Cc1ccc(S(=O)(=O)N(C)C[C@@H]2Oc3ccc(NS(=O)(=O)c4ccc(F)cc4)cc3C(=O)N([C@@H](C)CO)C[C@H]2C)cc1", "cytotoxicity call": "inactive"},
      {"smiles": "O=C1N[C@@H](c2ccccc2)COCc2cn(nn2)CC[C@@H](Cc2ccc(C(F)(F)F)cc2)C(=O)N[C@@H](c2ccccc2)COCc2cn(nn2)CC[C@H]1Cc1ccc(C(F)(F)F)cc1", "cytotoxicity call": "inactive"},
      {"smiles": "Fc1cccc(-c2csc(COc3ccccc3Cl)n2)c1", "cytotoxicity call": "inactive"},
      {"smiles": "COc1ccc(S(=O)(=O)Nc2ccc3c(c2)C(=O)N([C@H](C)CO)C[C@H](C)[C@@H](CN(C)S(=O)(=O)c2ccc(Cl)cc2)OCCCC[C@H](C)O3)cc1", "cytotoxicity call": "inactive"},
      {"smiles": "C[C@H]1CN([C@@H](C)CO)C(=O)c2cc(NC(=O)Cn3cnnn3)ccc2O[C@@H]1CN(C)S(=O)(=O)c1cn(C)cn1", "cytotoxicity call": "inactive"},
      {"smiles": "COc1ccc(CN(C)C[C@H]2OCCCC[C@@H](C)Oc3ccc(NC(=O)Nc4c(C)noc4C)cc3C(=O)N([C@@H](C)CO)C[C@@H]2C)cc1", "cytotoxicity call": "inactive"},
      {"smiles": "Cc1ccc(S(=O)(=O)Nc2ccc3c(c2)C(=O)N([C@@H](C)CO)C[C@H](C)[C@H](CN(C)C(=O)C2CCCCC2)OCCCC[C@@H](C)O3)cc1", "cytotoxicity call": "inactive"},
      {"smiles": "COc1ccccc1NC(=O)N(C)C[C@@H]1Oc2ncc(C#CCN(C)C)cc2C(=O)N([C@@H](C)CO)C[C@@H]1C", "cytotoxicity call": "inactive"},
      {"smiles": "C[C@H]1CN([C@@H](C)CO)C(=O)c2cccc(NC(=O)c3ccncc3)c2O[C@@H]1CN(C)Cc1ccc(Oc2ccccc2)cc1", "cytotoxicity call": "inactive"},
      {"smiles": "C[C@@H]1CCCCO[C@H](CN(C)C(=O)Nc2cccc3ccccc23)[C@H](C)CN([C@@H](C)CO)C(=O)c2cc(NC(=O)c3ccccc3)ccc2O1", "cytotoxicity call": "inactive"},
      {"smiles": "C[C@H](CO)N1C[C@H](C)[C@H](CN(C)C(=O)c2ccncc2)Oc2cc(C#C[C@@H](C)O)ccc2S1(=O)=O", "cytotoxicity call": "inactive"},
      {"smiles": "Cc1noc(C)c1NC(=O)Nc1ccc2c(c1)C(=O)N([C@@H](C)CO)C[C@H](C)[C@@H](CN(C)Cc1ccc3c(c1)OCO3)OCCCC[C@H](C)O2", "cytotoxicity call": "inactive"},
      {"smiles": "C[C@@H]1CN([C@H](C)CO)C(=O)c2cccc(NS(=O)(=O)c3ccccc3)c2O[C@H]1CN(C)Cc1ccc(-c2ccccc2)cc1", "cytotoxicity call": "inactive"},
      {"smiles": "COc1cc(S(=O)(=O)NCCN2CCN(S(=O)(=O)c3cc(OC)c(Cl)cc3OC)CC2)c(OC)cc1Cl", "cytotoxicity call": "inactive"},
      {"smiles": "Cc1ccc(S(=O)(=O)N(C)C[C@H]2OCCCC[C@H](C)Oc3ccc(NC(=O)Nc4c(C)noc4C)cc3C(=O)N([C@@H](C)CO)C[C@@H]2C)cc1", "cytotoxicity call": "inactive"}
    ]}
  ]
}
